Reference: the supplement of paper PMC4967469
Lines with a small IC50 respond at low doses; a limit (>, <) means that the fit lies beyond the doses tested. For AUC the same curve is integrated over the 256-fold range of doses and scaled to a fraction: 1 means no effect, lower means more sensitive. The top dose, if marked as inferred, is not printed in the source and was worked back from the curve model.

Experiments:
Assay in all cases: Viability of human cancer cell lines after 72 h of drug (GDSC screen)
KIN001-266 = compound: CCN1CCC(n2cc(CNc3cc(Cl)c4ncc(C#N)c(Nc5ccc(F)c(Cl)c5)c4c3)nn2)CC1 [KIN001-266]; conditions: top dose 20 µM; top dose inferred
Protocol: (§1)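 Human cancer cell lines in 384-well plates, medium with 10% serum, drug for 72 h over a 256-fold dose range (nine 2-fold or five 4-fold steps up to the top dose). Adherent lines were fixed and stained with the nucleic acid dye Syto60, suspension lines read with resazurin; signal relative to control wells, capped at 0 and 100%. One two-parameter sigmoid per drug and line, fitted in a mixed model over all curves with the slope shared within a line.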

CCT007093 = compound: O=C1/C(=C/c2cccs2)CC/C1=C\c1cccs1 [CCT007093]; conditions: top dose 6.6 µM; top dose inferred
Protocol: as §1

QL-XII-47 = compound: C=CC(=O)N1CCc2ccc(-n3c(=O)ccc4cnc5ccc(-c6cnn(C)c6)cc5c43)cc21 [QL-XII-47]; conditions: top dose 10.24 µM; top dose inferred
Protocol: as §1

BAY 61-3606 = compound: COc1ccc(-c2cc3nccn3c(Nc3ncccc3C(N)=O)n2)cc1OC [BAY 61-3606]; conditions: top dose 8 µM; top dose inferred
Protocol: as §1

Row | Cell Line | AUC (KIN001-266) | IC50 (KIN001-266) [µM] | AUC (CCT007093) | IC50 (CCT007093) [µM] | AUC (QL-XII-47) | IC50 (QL-XII-47) [µM] | AUC (BAY 61-3606) | IC50 (BAY 61-3606) [µM]
1 | CAPAN-1 (pancreas, adherent) | 0.969 | > 20 | 0.97 | > 6.6 | 0.892 | > 10.2 | 0.794 | 
2 | OCI-AML2 (acute myeloid leukaemia, suspension) | 0.87 | 11.1 | 0.995 | > 6.6 | 0.84 | 4.64 | 0.852 | 3.92
3 | ChaGo-K-1 (non-small cell lung carcinoma, adherent) | 0.919 | > 20 | 0.893 | > 6.6 | 0.647 | 1.76 | 0.96 | > 8
4 | G-MEL (melanoma, adherent) | 0.853 | 15.4 | 0.966 | > 6.6 | 0.46 | 0.498 | 0.672 | 1.5
5 | SW1271 (small cell lung carcinoma, adherent) | 0.779 | 9.48 | 0.984 | > 6.6 | 0.581 | 1.11 | 0.759 | 3.21
6 | JiyoyeP-2003 (Burkitt lymphoma, suspension) | 0.846 | 12 | 0.974 | > 6.6 | 0.675 | 1.84 | 0.693 | 1.6
7 | H-EMC-SS (chondrosarcoma, adherent) | 0.91 | > 20 | 0.979 | > 6.6 | 0.766 | 4.89 | 0.77 | 3.97
8 | D-283MED (medulloblastoma, adherent) | 0.948 | > 20 | 0.984 | > 6.6 | 0.991 | > 10.2 | 0.909 | > 8
9 | MKN45 (stomach, adherent) | 0.954 | > 20 | 0.977 | > 6.6 | 0.811 | 7.3 | 0.921 | > 8
10 | SF295 (glioma, adherent) | 0.883 | > 20 | 0.971 | > 6.6 | 0.609 | 1.31 | 0.902 | > 8
11 | WM1552C (melanoma, adherent) | 0.987 | > 20 | 0.987 | > 6.6 | 0.773 | 4 | 0.886 | > 8
12 | KURAMOCHI (ovary, adherent) | 0.923 | > 20 | 0.984 | > 6.6 | 0.795 | 5.61 | 0.853 | 7.83
13 | PANC-03-27 (pancreas, adherent) | 0.75 | 6.15 | 0.988 | > 6.6 | 0.748 | 3.11 | 0.813 | 3.98
14 | SLVL (B-cell lymphoma, suspension) | 0.864 | 19.3 | 0.986 | > 6.6 | 0.588 | 1.13 | 0.702 | 1.92
15 | CHSA0011 (chondrosarcoma, adherent) | 0.958 | > 20 | 0.931 | > 6.6 | 0.851 | > 10.2 | 0.923 | > 8
16 | SF126 (glioma, adherent) | 0.959 | > 20 | 0.986 | > 6.6 | 0.593 | 1.16 | 0.934 | > 8
17 | THP-1 (acute myeloid leukaemia, suspension) | 0.663 | 3.36 | 0.991 | > 6.6 | 0.55 | 0.864 | 0.911 | > 8
18 | VA-ES-BJ (soft tissue, adherent) | 0.871 | > 20 | 0.98 | > 6.6 | 0.705 | 2.5 | 0.877 | > 8
19 | NCI-H1563 (lung adenocarcinoma, adherent) | 0.925 | > 20 | 0.983 | > 6.6 | 0.559 | 0.958 | 0.937 | > 8
20 | HT-1197 (bladder, adherent) | 0.938 | > 20 | 0.975 | > 6.6 | 0.688 | 2.38 | 0.909 | > 8

Row | Cell Line | AUC (KIN001-266) | IC50 (KIN001-266) [µM] | AUC (CCT007093) | IC50 (CCT007093) [µM] | AUC (QL-XII-47) | IC50 (QL-XII-47) [µM] | AUC (BAY 61-3606) | IC50 (BAY 61-3606) [µM]
21 | NCI-H2141 (small cell lung carcinoma, suspension) | 0.913 | > 20 | 0.991 | > 6.6 | 0.93 | > 10.2 | 0.894 | > 8
22 | SK-MEL-30 (melanoma, adherent) | 0.867 | 19.8 | 0.981 | > 6.6 | 0.52 | 0.729 | 0.937 | > 8
23 | KNS-81-FD (glioma, adherent) | 0.855 | > 20 | 0.963 | > 6.6 | 0.933 | > 10.2 | 0.919 | > 8
24 | UACC-62 (melanoma, adherent) | 0.983 | > 20 | 0.985 | > 6.6 | 0.898 | > 10.2 | 0.983 | > 8
25 | NCI-SNU-5 (stomach, suspension) | 0.989 | > 20 | 0.983 | > 6.6 | 0.977 | > 10.2 | 0.981 | > 8
26 | HSC-3 (head and neck, adherent) | 0.905 | > 20 | 0.99 | > 6.6 | 0.702 | 2.15 | 0.881 | 6.31
27 | CHSA8926 (chondrosarcoma, adherent) | 0.98 | > 20 | 0.98 | > 6.6 | 0.833 | > 10.2 | 0.98 | > 8
28 | KARPAS-299 (anaplastic large cell lymphoma, suspension) | 0.876 | 14.2 | 0.991 | > 6.6 | 0.596 | 1.12 | 0.96 | > 8
29 | KP-4 (pancreas, adherent) | 0.985 | > 20 | 0.977 | > 6.6 | 0.414 | 0.375 | 0.946 | > 8
30 | TE-8 (oesophagus, adherent) | 0.881 | > 20 | 0.981 | > 6.6 | 0.924 | > 10.2 | 0.738 | 2.53
31 | NTERA-2 cl.D1 (testis, adherent) | 0.856 | 15.8 | 0.966 | > 6.6 | 0.697 | 2.27 | 0.728 | 2.21
32 | FU97 (stomach, adherent) | 0.861 | 17.7 | 0.969 | > 6.6 | 0.849 | 8.05 | 0.888 | > 8
33 | FTC-133 (thyroid, adherent) | 0.977 | > 20 | 0.978 | > 6.6 | 0.986 | > 10.2 | 0.958 | > 8
34 | NCI-H520 (lung squamous cell carcinoma, adherent) | 0.669 | 3.75 | 0.975 | > 6.6 | 0.656 | 1.76 | 0.879 | > 8
35 | Ca-Ski (cervix, adherent) | 0.798 | 10.9 | 0.983 | > 6.6 | 0.433 | 0.409 | 0.814 | 5.02
36 | SK-OV-3 (ovary, adherent) | 0.871 | > 20 | 0.981 | > 6.6 | 0.54 | 0.848 | 0.833 | 7.08
37 | GB-1 (glioma, adherent) | 0.845 | 18.5 | 0.966 | > 6.6 | 0.715 | 2.94 | 0.738 | 2.75
38 | TK10 (kidney, adherent) | 0.809 | 13.2 | 0.978 | > 6.6 | 0.469 | 0.519 | 0.799 | 4.81
39 | MFE-296 (endometrium, adherent) | 0.969 | > 20 | 0.985 | > 6.6 | 0.865 | 10.1 | 0.908 | > 8
40 | IST-SL1 (small cell lung carcinoma, semi-adherent) | 0.731 | 5.81 | 0.967 | > 6.6 | 0.464 | 0.51 | 0.856 | 6.76

Row | Cell Line | AUC (KIN001-266) | IC50 (KIN001-266) [µM] | AUC (CCT007093) | IC50 (CCT007093) [µM] | AUC (QL-XII-47) | IC50 (QL-XII-47) [µM] | AUC (BAY 61-3606) | IC50 (BAY 61-3606) [µM]
41 | HEL (acute myeloid leukaemia, semi-adherent) | 0.892 | 16.6 | 0.992 | > 6.6 | 0.394 | 0.345 | 0.672 | 1.38
42 | TYK-nu (ovary, adherent) | 0.86 | 18.8 | 0.984 | > 6.6 | 0.796 | 5.16 | 0.916 | > 8
43 | UM-UC-3 (bladder, adherent) | 0.877 | 17.9 | 0.972 | > 6.6 | 0.588 | 1.1 | 0.876 | 7.1
44 | HCC70 (breast, adherent) | 0.762 | 7.01 | 0.976 | > 6.6 | 0.871 | 9.31 | 0.744 | 2.46
45 | NCI-H1792 (lung adenocarcinoma, adherent) | 0.988 | > 20 | 0.988 | > 6.6 | 0.897 | > 10.2 | 0.957 | > 8
46 | PCI-6A (head and neck, adherent) | 0.856 | 15.5 | 0.942 | > 6.6 | 0.67 | 1.88 | 0.821 | 4.53
47 | JM1 (B-cell lymphoma, suspension) | 0.946 | > 20 | 0.975 | > 6.6 | 0.441 | 0.454 | 0.785 | 2.91
48 | ABC-1 (lung adenocarcinoma, adherent) | 0.931 | > 20 | 0.974 | > 6.6 | 0.646 | 1.77 | 0.843 | 7.5
49 | NCI-H1836 (small cell lung carcinoma, suspension) | 0.981 | > 20 | 0.985 | > 6.6 | 0.957 | > 10.2 | 0.934 | > 8
50 | LS-1034 (large intestine, adherent) | 0.747 | 6.98 | 0.986 | > 6.6 | 0.646 | 1.7 | 0.88 | > 8
51 | H2595 (mesothelioma, adherent) | 0.97 | > 20 | 0.98 | > 6.6 | 0.839 | > 10.2 | 0.898 | > 8
52 | A172 (glioma, adherent) | 0.86 | 15.7 | 0.93 | > 6.6 | 0.864 | 8.44 | 0.737 | 2.3
53 | HCC1428 (breast, adherent) | 0.891 | > 20 | 0.98 | > 6.6 | 0.893 | > 10.2 | 0.988 | > 8
54 | SUP-B15 (lymphoblastic leukaemia, suspension) | 0.841 | 13.1 | 0.985 | > 6.6 | 0.405 | 0.356 | 0.641 | 1.21
55 | MRK-nu-1 (breast, suspension) | 0.83 | 11.2 | 0.989 | > 6.6 | 0.964 | > 10.2 | 0.776 | 2.93
56 | YT (lymphoid neoplasm, suspension) | 0.885 | 16.1 | 0.983 | > 6.6 | 0.557 | 0.894 | 0.755 | 
57 | NCI-H209 (small cell lung carcinoma, suspension) | 0.919 | > 20 | 0.983 | > 6.6 | 0.813 | 6.05 | 0.858 | 7.36
58 | Ramos-2G6-4C10 (Burkitt lymphoma, suspension) | 0.874 | 14.8 | 0.989 | > 6.6 | 0.639 | 1.46 | 0.788 | 2.98
59 | PC-3 [JPC-3] (lung adenocarcinoma, adherent) | 0.815 | 15.8 | 0.954 | > 6.6 | 0.505 | 0.664 | 0.928 | > 8
60 | MOLT-4 (lymphoblastic leukaemia, suspension) | 0.891 | 15.7 | 0.978 | > 6.6 | 0.545 | 0.828 | 0.873 | 5.33
